Laboratory results published in the supplement of paper PMC8728848.
This is one part of the list.

Assays:
Assay in all cases: glycan array binding signal (z-score within array); higher = stronger binding
Details in all cases: glycan notation: IUPAC condensed, linker removed
[1] = target: Fuc(a1-2)[GalNAc(a1-3)]Gal(b1-4)GlcNAc(b1-3)GalNAc
Method in brief: (§1)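 The binding signal is a Z-score computed within each array. Data were drawn from 3228 arrays in the Consortium for Functional Glycomics database, restricted to those with a known protein sequence. Scores were averaged over arrays of the same protein sequence at different concentrations or buffers, and over linkers, and negative values can be taken as non-binding.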

[2] = target: Fuc(a1-2)[GalNAc(a1-3)]Gal(b1-4)[Fuc(a1-3)]GlcNAc
Method in brief: as §1

[3] = target: Fuc(a1-2)[GalNAc(a1-3)]Gal(b1-4)[Fuc(a1-3)]GlcNAc(b1-3)GalNAc
Method in brief: as §1

[4] = target: Fuc(a1-2)[GalNAc(a1-4)]Gal(b1-4)GlcNAc
Method in brief: as §1

[5] = target: Fuc(a1-2)[GalNAc(b1-3)]Gal
Method in brief: as §1

Fuc(a1-3)GlcNAc = target: Fuc(a1-3)GlcNAc
Method in brief: as §1

[6] = target: Fuc(a1-3)[Gal(b1-4)]Glc6S
Method in brief: as §1

[7] = target: Fuc(a1-3)[Gal(b1-4)]GlcNAc
Method in brief: as §1

[8] = target: Fuc(a1-3)[Gal(b1-4)]GlcNAc(b1-2)Man(a1-3)[Fuc(a1-3)[Gal(b1-4)]GlcNAc(b1-2)Man(a1-6)]Man(b1-4)GlcNAc(b1-4)GlcNAc
Method in brief: as §1

[9] = target: Fuc(a1-3)[Gal(b1-4)]GlcNAc(b1-2)Man(a1-3)[Fuc(a1-3)[Gal(b1-4)]GlcNAc(b1-2)Man(a1-6)]Man(b1-4)GlcNAc(b1-4)[Fuc(a1-6)]GlcNAc
Method in brief: as §1

[10] = target: Fuc(a1-3)[Gal(b1-4)]GlcNAc(b1-3)Gal(b1-3)[Fuc(a1-4)]GlcNAc
Method in brief: as §1

[11] = target: Fuc(a1-3)[Gal(b1-4)]GlcNAc(b1-3)GalNAc
Method in brief: as §1

[12] = target: Fuc(a1-3)[Gal(b1-4)]GlcNAc(b1-4)Gal(b1-4)[Fuc(a1-3)]GlcNAc
Method in brief: as §1

[13] = target: Fuc(a1-3)[Gal(b1-4)]GlcNAc(b1-4)Gal(b1-4)[Fuc(a1-3)]GlcNAc(b1-4)Gal(b1-4)[Fuc(a1-3)]GlcNAc
Method in brief: as §1

[14] = target: Fuc(a1-3)[Gal(b1-4)]GlcNAc(b1-6)[Gal(b1-3)GlcNAc(b1-3)]Gal(b1-4)Glc
Method in brief: as §1

[15] = target: Fuc(a1-3)[Gal(b1-4)]GlcNAc6S
Method in brief: as §1

[16] = target: Fuc(a1-3)[Gal3S(b1-4)]GlcNAc
Method in brief: as §1

[17] = target: Fuc(a1-3)[Gal3S(b1-4)]GlcNAc6S
Method in brief: as §1

[18] = target: Fuc(a1-3)[GalNAc(b1-4)]GlcNAc
Method in brief: as §1

Fuc(a1-4)GlcNAc = target: Fuc(a1-4)GlcNAc
Method in brief: as §1

Fuc(b1-3)GlcNAc = target: Fuc(b1-3)GlcNAc
Method in brief: as §1

Gal(a1-2)Gal = target: Gal(a1-2)Gal
Method in brief: as §1

Gal(a1-3)Gal = target: Gal(a1-3)Gal
Method in brief: as §1

Gal(a1-3)Gal(b1-3)GlcNAc = target: Gal(a1-3)Gal(b1-3)GlcNAc
Method in brief: as §1

[19] = target: Gal(a1-3)Gal(b1-3)GlcNAc(b1-2)Man(a1-3)[Gal(a1-3)Gal(b1-3)GlcNAc(b1-2)Man(a1-6)]Man(b1-4)GlcNAc(b1-4)GlcNAc
Method in brief: as §1

[20] = target: Gal(a1-3)Gal(b1-3)GlcNAc(b1-3)GalNAc
Method in brief: as §1

[21] = target: Gal(a1-3)Gal(b1-3)[Fuc(a1-4)]GlcNAc(b1-2)Man(a1-3)[Gal(a1-3)Gal(b1-3)[Fuc(a1-4)]GlcNAc(b1-2)Man(a1-6)]Man(b1-4)GlcNAc(b1-4)GlcNAc
Method in brief: as §1

Gal(a1-3)Gal(b1-4)Glc = target: Gal(a1-3)Gal(b1-4)Glc
Method in brief: as §1

Gal(a1-3)Gal(b1-4)GlcNAc = target: Gal(a1-3)Gal(b1-4)GlcNAc
Method in brief: as §1

[22] = target: Gal(a1-3)Gal(b1-4)GlcNAc(b1-3)GalNAc
Method in brief: as §1

B1: CwpV (Clostridium difficile), B6EFG6 (protein)
chain: MKIPKKIAAMLTVTMIAGSSTAGIASAQTVATNLTGQERYETAVKISQDGWKNADEVVIVNDSSIADALSATPFAKAKNAPILLTSKDKLNDKTKAEIQRLKAKKVYLIGGTSVLSTNIEKEIKDLKISFERISGAERYQTSLELAKKLDAISDVKKIAVVNGEKGLADAVSVGAPAAQNNMPVILADSKNGTAVADKFIKDAGITQSYVVGGESSISEAVKNKLPNSTRLGGTDRNDTNAKVIKEFYKKTDLKNAYVTKDGMNKQDQLIDALAVGVLGAKNQSPVVLVGKNLSASQKSLVNSKSFDKITKVGGNGNETAFNEMKSLQEVKTVEAKTISELKSAIDKATANDVINFKPTSEVKEAFTIQTDKAVTVNLNGTYTKTVTINMPNGDVNNYAKVDDVVIDDVKDGTFVNYGKITNLKVNDKNGAKIENNSKGEIGSLTVASGASQVKVTNGGKITTVTNNSKGTTIDNKGTISSVKGDNSPTISGNSPSSNSSGGSSSSGGSSGGSSGGSSSSKVGQIKFSATDKQIKMASGDKTVDPSDNTYILKLTNGTVKDGDVKANVKVAGLPSGLDYTAVGNRSANTITITVSGTTSQSIQNDLNNVSVLVKAGAVSGTGATDSIANTTFEIKKYVAAPAVGQLTFDATDKQIKMASGDKTVDPSDDTYVLTLTKGTAKDGDIKANVEVTGLPSGLDYTAEGDSSANTITIPVSGTASPAVQTDLDNVSVLVKAGAVSETTATDSAANATFEVKKYVAPAVGQLTFDATDKQIKMASGDKTVDPSDDTYVLTLTKGTAKDGDIKANVEVTGLPSGLDYTAEGDSSANTITITVSGTASQAVQTDLDNVSVLVKAGAVSETTATDSAANATFEVKKYVAPAIGQLTFDATDKQIKMASGDKTVDPSDDTYVLTLTKGTAKDGDIKANVEVTGLPSGLDYTAEGDSSANTITITVSGTASQAVQTDLDNVSVLVKAGAVSETTATDSAANATFEVKKHASDPISTIGKISSGLSSLFNILK
glycan array binding signal (z-score) [1]: 0.006 | glycan array binding signal (z-score) [2]: -0.106 | glycan array binding signal (z-score) [3]: 0.501 | glycan array binding signal (z-score) [4]: 0.344 | glycan array binding signal (z-score) [5]: -0.249 | glycan array binding signal (z-score) (Fuc(a1-3)GlcNAc): -0.277 | glycan array binding signal (z-score) [6]: -0.148 | glycan array binding signal (z-score) [7]: -0.247 | glycan array binding signal (z-score) [8]: -0.175 | glycan array binding signal (z-score) [9]: 0.011 | glycan array binding signal (z-score) [10]: -0.336 | glycan array binding signal (z-score) [11]: 0.07 | glycan array binding signal (z-score) [12]: 0.31 | glycan array binding signal (z-score) [13]: 0.405 | glycan array binding signal (z-score) [14]: -0.298 | glycan array binding signal (z-score) [15]: 0.248 | glycan array binding signal (z-score) [16]: -0.307 | glycan array binding signal (z-score) [17]: 0.503 | glycan array binding signal (z-score) [18]: -0.291 | glycan array binding signal (z-score) (Fuc(a1-4)GlcNAc): -0.3 | glycan array binding signal (z-score) (Fuc(b1-3)GlcNAc): -0.338 | glycan array binding signal (z-score) (Gal(a1-2)Gal): -0.332 | glycan array binding signal (z-score) (Gal(a1-3)Gal): -0.326 | glycan array binding signal (z-score) (Gal(a1-3)Gal(b1-3)GlcNAc): -0.254 | glycan array binding signal (z-score) [19]: 0.365 | glycan array binding signal (z-score) [20]: 0.556 | glycan array binding signal (z-score) [21]: 0.538 | glycan array binding signal (z-score) (Gal(a1-3)Gal(b1-4)Glc): -0.314 | glycan array binding signal (z-score) (Gal(a1-3)Gal(b1-4)GlcNAc): -0.273 | glycan array binding signal (z-score) [22]: -0.283
